ChEMBL document CHEMBL4888484, “Replenishing the malaria drug discovery pipeline: Screening and hit evaluation of the MMV Hit Generation Library 1 (HGL1) against asexual blood stage Plasmodium falciparum ,using a nano luciferase reporter read-out” (2022)
Out of some 150,000 compounds screened, about 540 (0.36%) showed an effect of 50% or more. The list shows a part of the results.

System: Plasmodium falciparum
Assay: Primary screen in NF54 nanoGlo assay, in single point, at 2uM, 72h; a lower Z score goes with more inhibition
Type: functional, Erythrocyte
Settings: timepoint 72 hour

SMILES	% Inhibition	Z score
CC(C)[C@H](CO)N(Cc1ccccc1)C(=O)c1cnn2c1CCCC2	-1%	0.06
CC[C@H](NC(=O)c1cnn(CC)c1)c1ccc(C)cn1	-7%	0.66
O=C1CC[C@@H](C(=O)Nc2cccc(OCCn3cccn3)c2)N1	-3%	0.32
CC(C)n1ccc(-c2cncc(C(F)F)c2)n1	-12%	1.61
CCN1C[C@@H](c2ccccc2)CC2(CCN(S(=O)(=O)N(C)CC)CC2)C1	-14%	2.17
CN1CCC(Cc2noc(-c3cn(C[C@H]4COc5ccccc5O4)nn3)n2)CC1	-2%	0.3
O=C(c1cccnc1)c1c(F)cc(F)cc1F	3%	-0.55
Cc1nn(C)c(C)c1OCc1nnc(C(C)C)o1	-6%	0.73
CC1(C)C[C@H](O)c2cccc(NCc3noc4c3CCCC4)c2O1	5%	-0.54
Cc1nccn1CCCN(C)C(=O)[C@H](C)c1ccnn1C	-1%	0.14
CC1(C)CN(CCn2cncn2)C1(C)C	-6%	0.63
CC1CCC(O)(CN2CC[C@H](N(C)Cc3nnc(C4CC4)o3)C2)CC1 (some centres not stated)	-11%	1.55
CC(NC(=O)C(C)N1CCC(C(N)=O)C1)c1cc2ccccc2o1 (configuration not stated)	-14%	1.25
CCOC(=O)N1CCN(C(=O)CCc2n[nH]c(-c3ccc(OCc4ccccc4)cc3)nc2=O)CC1	-6%	1.07
O=C(Cc1ccsc1)N[C@H]1CCOC[C@H]1C1CCOCC1	-5%	0.94
CN(CC1(O)CCC1)C(=O)CCc1cncs1	-8%	0.8
COC(=O)CN1CCN(c2noc(C(C)(C)C)n2)CC1	-11%	1.35
COc1ccc(CN[C@@H](C)c2ccc(S(C)(=O)=O)c(F)c2)cn1	-13%	1.29
Cc1cc(NC(=O)C2CCN(c3ncnc4nc[nH]c34)CC2)nn1C	1%	-0.18
Cc1nc(C)c([C@H](C)NC(=O)Cc2cccc(F)c2)s1	2%	-0.25
CC(C)C[C@H]1CN(C)CCN1C(=O)CCc1ccccc1C(N)=O	-4%	0.69
CCc1noc(C)c1CN[C@@H](C)c1cccc(N2CCOC2=O)c1	-5%	0.74

SMILES	% Inhibition	Z score
CC(C)CC(=O)N1CCc2ccc(OCc3ccc(C(=O)NC4CC4)o3)cc2[C@@H]1c1ccc(F)cc1	-18%	1.67
CN1CCC(n2nc(-c3ccncc3)nc2-c2n[nH]c3c2CCC3)CC1	1%	-0.26
Cc1ccc(-c2ccno2)cc1S(=O)(=O)N1C[C@@H]2CC[C@H]1CN(C)C2	-4%	0.57
Cn1ncc2c(N3CCCCC3)nc(C(=O)N3CCN(c4ccc(Cl)cc4)CC3)nc21	-11%	1.88
Cc1noc2ncnc(N3CCC[C@H]3c3cnn(C)c3)c12	-7%	0.7
Cc1ccc(CNC(=O)N(C)CC2CCCCC2O)cn1 (configuration not stated)	-3%	0.27
O=C(NCCN1CC[C@H](N2CCCCCC2)C1=O)c1ccco1	-3%	0.34
O=S(=O)(c1ccc(Cl)s1)N1CC(OCCO)C1	-5%	0.72
Cc1occc1-c1cc(NC(=O)N[C@H]2CCCN(S(C)(=O)=O)C2)no1	-10%	2.01
Cn1nc2n(c1=O)CCC(NC(=O)C1CC=CCC1)CC2 (configuration not stated)	-8%	1.2
COCCC[C@]1(C(=O)O)CCCN(c2nccc(N)n2)C1	-6%	1.08
Cc1noc(C)c1CN(C)C(=O)NCCOc1ccc2c(c1)OCO2	-1%	0.09
O=C(Cc1ccc(N(Cc2cccc(F)c2)C(=O)c2cccc(F)c2)cc1)NCCN1CCCC1	3%	-0.41
O=C1CC[C@@]2(CCCO2)CCN1Cc1cccc(Oc2ccccc2)c1	-7%	1.02
CCOC(=O)c1cnn(CCOc2ccccc2)c1N	-16%	2.41
CN1CCN(C(=O)NC(C)(C)C)[C@@H](CNC(=O)OC(C)(C)C)C1	-9%	1.22
CCC(C)C(C(=O)O)n1c[n+]([O-])c(-c2ccccc2)c1-c1ccccc1 (configuration not stated)	1%	-0.07
O=C(c1cccnc1O)N1CC(Oc2ccccc2F)C1	-17%	1.81
COc1ccc(-c2ocnc2C(=O)Nc2ccccc2CCc2nc3ccccc3[nH]2)cc1OC	-7%	0.86
CS(=O)(=O)CCCN1CCC[C@H](c2cc(F)ccc2F)C1	-6%	0.81
CCCN1C(=O)N[C@@H](CC(=O)N2CCC(C(=O)N3CCCC3)CC2)C1=O	-7%	1.19
CC(=O)N(C)C1CCN(c2cc(C(C)C)nc(N3CCC(N(C)C(C)=O)CC3)n2)CC1	8%	-0.87

SMILES	% Inhibition	Z score
COCCOCCS(=O)(=O)Nc1c(O)cccc1Cl	2%	-0.2
CCS(=O)(=O)C[C@H](C)NC(=O)c1cccnc1	-14%	1.58
CC(C)(C)OC(=O)N1C(=O)CC[C@H]1C(=O)OCc1ccccc1	-9%	1.28
COc1ccccc1[C@H](CNCc1c[nH]nc1C)N1CCCC1	-6%	0.93
COc1ccc(CN2C(=O)N[C@@H](CC(=O)Nc3ccc(F)c(F)c3F)C2=O)cc1OC	-10%	1.34
CC(C)N(Cc1ccn(-c2ccccc2)n1)C1CCCC1	-6%	0.91
Cc1noc(C)c1NC(=O)N1CC(C)OC(C)C1 (configuration not stated)	-4%	0.42
O=C(CC(=O)Nc1ccc(F)c(Cl)c1)NCc1cc(C2CC2)[nH]n1	-6%	0.73
ON(Cn1nnc2ccccc21)Cn1nnc2ccccc21	-5%	0.67
O=C(Cn1c2c(c(=O)n3nc(-c4ccccc4)nc13)CCC2)Nc1cc(F)ccc1F	2%	-0.24
O=C(Cc1cccc(F)c1)N[C@H]1CC12CC2	-8%	0.77
CC1C(c2ccccc2)CCN1C(=O)Cn1ncn2nccc2c1=O (configuration not stated)	-13%	1.41
O=C1CS(=O)(=O)N(Cc2cc(C3CC3)no2)c2ccccc21	-7%	1.08
CC(C)CN(CCC(=O)NCCN1CCOCC1)c1nc(-c2ccccc2Cl)nc2ccccc12	-9%	1.23
Cc1ccc(CN(C(=O)c2ccccc2C)c2cccc(CC(=O)NCCN3CCCC3)c2)cc1	-9%	1.17
Cc1cc(C)cc(CN2CCCn3nc(CNC(=O)C4CCC4)cc3C2)c1	-5%	1
COCC1CN(Cc2cncs2)CC(C)O1 (configuration not stated)	-2%	0.25
O=S(=O)(c1cn[nH]c1)N1CCC[C@H](c2nnc[nH]2)C1	9%	-1.21
CC(C)N(CCc1nccs1)C(=O)Cc1cccc(O)c1	-8%	0.85
O=C(Nc1nnc(-c2cccs2)o1)C(c1ccccc1)c1ccccc1	0%	0.03
CCOC1CN(C(=O)[C@@](C)(C#N)CC)C1	6%	-1.05
CC[C@@H](C(=O)NCc1ccc2c(c1)OCO2)n1c(Cc2ccccc2)nc2cc(Cl)c(Cl)cc21	-3%	0.58

SMILES	% Inhibition	Z score
O=c1[nH]c2nonc2nc1Nc1cccc(Cl)c1	7%	-0.88
O=C1C[C@@H](C(=O)N2CCC[C@H]2C(F)(F)F)NC(=O)N1	-7%	1.41
CC(C)(C)OC(=O)N1CCCC[C@H](NC(=O)Nc2ccc3c(c2)OCCO3)C1	5%	-0.66
C[C@@H](c1cccc(-c2nccn2Cc2ccoc2)c1)N(C)C	-8%	1.03
CCc1cnc(CCNC(=O)N[C@@H](C)C(=O)N(C)C)s1	-12%	1.58
COc1cc(C(=O)N2C[C@H](c3ccc(C)cc3)[C@@H](N(C)C)C2)ccn1	-8%	1.43
NS(=O)(=O)CCCCS(=O)(=O)N1Cc2ccccc2CO1	-15%	1.9
C[C@@H]1COCCN(C(=O)c2csc(C3CC3)n2)C1	-1%	0.15
COC(=O)N(C)CC(=O)NCC1CCCC1	10%	-1.31
CN(Cc1ccnn1C)c1nccn(C)c1=O	-4%	0.56
Cn1c(CNc2cncc(-c3cccs3)n2)nnc1C1CC1	-9%	1.36
COCCc1n[nH]c([C@H](C)Oc2ccc(Cl)cc2C)n1	-5%	0.76
CC(NC(=O)c1cc(C#N)c[nH]1)C(O)c1ccc(F)c(F)c1 (configuration not stated)	-5%	0.82
COc1ccc(N2CCN(CN3C(=O)C4(OCCO4)c4ccccc43)CC2)cc1	-6%	0.71
Cc1ncsc1CCc1nc(-c2ccc3[nH]cnc3c2)no1	-8%	1.44
CC1(C)[C@H](Cc2cc(CC3CCCCC3)on2)C[C@@H]1NC(=O)C1CCC1	25%	-2.86
COc1ccc(C[C@@]2(CCC(=O)N3CCCCC3)CCC(=O)N2)cc1	4%	-0.58
CS(=O)(=O)c1ccc2nc(NC(=O)c3cc4n(n3)CCCO4)sc2c1	-12%	1.87
CC1(C)CCc2nc(NC(=O)c3cnc4ccccc4n3)ncc2C1	-7%	0.83
C[C@H](Nc1ncnc2ccccc12)c1ccc(N2CCCS2(=O)=O)cc1	-12%	2.06
